From the supplement of paper PMC12067230
This is a noisy data set.

Assay: amyloid nucleation score relative to library mode (yeast Sup35 reporter selection) (log enrichment difference); higher = more amyloid nucleation; sequences are the first 22 residues of the Bri2 peptide extended by up to 12 random residues
Settings: random library (experiment): 1;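 active = nucleation score significantly above 0 at FDR 0.05; inactive = not significantly above 0 or absent from output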
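Note: [psi-pin-] Saccharomyces cerevisiae expressing SupN fusions, induced by 100 µM Cu2SO4, selected 7 d at 30 °C without adenine and uracil, scored by deep sequencing of output versus input.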

| Sequence | amyloid nucleation score |
| --- | --- |
| EASNCFAIRHFENKFAVETLICRK | inactive |
| EASNCFAIRHFENKFAVETLICYVLWWYENAFVS | inactive |
| EASNCFAIRHFENKFAVETLICFRLLGIPMVVFS | inactive |
| EASNCFAIRHFENKFAVETLICCTVDPR | 7.52 |
| EASNCFAIRHFENKFAVETLICTWSEDTDKGLTG | inactive |
| EASNCFAIRHFENKFAVETLICMRMYTDMCVGTA | inactive |
| EASNCFAIRHFENKFAVETLICFCWDRMLLITSK | inactive |
| EASNCFAIRHFENKFAVETLICVGLLSNVFFDVS | inactive |
| EASNCFAIRHFENKFAVETLICLSDMF | 4.71 |
| EASNCFAIRHFENKFAVETLICVSMRVLLWLRML | inactive |
| EASNCFAIRHFENKFAVETLICLSGMCRLLVLLS | 2.25 |
| EASNCFAIRHFENKFAVETLICTRSPTIVFCATG | inactive |
| EASNCFAIRHFENKFAVETLICVQRAERREMHRF | 4.03 |
| EASNCFAIRHFENKFAVETLICLCLCVLKSIVPA | inactive |
| EASNCFAIRHFENKFAVETLICFLVEYVHLCVKD | inactive |
| EASNCFAIRHFENKFAVETLICDYDSKGTGRALI | inactive |
| EASNCFAIRHFENKFAVETLICKVGCIFAEECRD | 8.39 |
| EASNCFAIRHFENKFAVETLICRVGTGGGAEGRK | inactive |
| EASNCFAIRHFENKFAVETLICYCNSARCEYLEA | 4.13 |
| EASNCFAIRHFENKFAVETLICVICSWYGCDQYV | 7.85 |
| EASNCFAIRHFENKFAVETLICCDRP | 0.136 |
| EASNCFAIRHFENKFAVETLICQNIDRRVIIRYC | 5.66 |
| EASNCFAIRHFENKFAVETLICGVDISMA | inactive |
| EASNCFAIRHFENKFAVETLICCALANALETAV | inactive |
| EASNCFAIRHFENKFAVETLICVCSTKVEAGSEG | inactive |
| EASNCFAIRHFENKFAVETLICIVAVRGYRLLRL | inactive |
| EASNCFAIRHFENKFAVETLICRGWLRVTSSWTW | inactive |

| Sequence | amyloid nucleation score |
| --- | --- |
| EASNCFAIRHFENKFAVETLICLSRLENGGGYGP | 1.99 |
| EASNCFAIRHFENKFAVETLICRSSGSRQTAGLF | inactive |
| EASNCFAIRHFENKFAVETLICRQG | inactive |
| EASNCFAIRHFENKFAVETLICTPCKCRWYRTSS | 4.94 |
| EASNCFAIRHFENKFAVETLICFEFRKSFPVATL | 0.703 |
| EASNCFAIRHFENKFAVETLICCKLAPAYCPYAV | -0.171 |
| EASNCFAIRHFENKFAVETLICRTCRCIQDRSVA | 5.14 |
| EASNCFAIRHFENKFAVETLICLCSPDVAHRPCL | 7.07 |
| EASNCFAIRHFENKFAVETLICGTKFHYVWVRHG | inactive |
| EASNCFAIRHFENKFAVETLICESYFWFPESTSS | inactive |
| EASNCFAIRHFENKFAVETLICVPYNVSLVYGLR | inactive |
| EASNCFAIRHFENKFAVETLICALWCLSGLRLGT | -0.00976 |
| EASNCFAIRHFENKFAVETLICITSNAGHSVKLF | 3.56 |
| EASNCFAIRHFENKFAVETLICYARVSEQEAGRR | 2.93 |
| EASNCFAIRHFENKFAVETLICAGSLKTDLDKSC | inactive |
| EASNCFAIRHFENKFAVETLICYLEFITT | 3.34 |
| EASNCFAIRHFENKFAVETLICGDHLCYVILSWQ | inactive |
| EASNCFAIRHFENKFAVETLICYQVGTHNLRLSV | 2.63 |
| EASNCFAIRHFENKFAVETLICWDLWKIVYASVW | inactive |
| EASNCFAIRHFENKFAVETLICKSLQLSWMVV | inactive |
| EASNCFAIRHFENKFAVETLICLLKNKSVLHVMF | inactive |
| EASNCFAIRHFENKFAVETLICRAV | inactive |
| EASNCFAIRHFENKFAVETLICGAVC | inactive |
| EASNCFAIRHFENKFAVETLICLCDQAHQRPSA | 8.25 |
| EASNCFAIRHFENKFAVETLICLNLCISKHTFGA | 4.14 |
| EASNCFAIRHFENKFAVETLICQITFGFVWDFRT | inactive |
| EASNCFAIRHFENKFAVETLICLFGF | 5.91 |

Same assay, conditions: random library (experiment): 2

| Sequence | amyloid nucleation score |
| --- | --- |
| EASNCFAIRHFENKFAVETLICGNSVKDCCCSRR | 7.52 |
| EASNCFAIRHFENKFAVETLICLCWSEKTRSLWA | 4.69 |
| EASNCFAIRHFENKFAVETLICLTRVCPVDRTLD | inactive |
| EASNCFAIRHFENKFAVETLICWDVYGAAVVMVV | inactive |
| EASNCFAIRHFENKFAVETLICVLLLGDRSMILK | inactive |
